Measurements reported in the supplement of paper PMC3334620.
The full ranking holds about 33,000 sequences; the median of “E-score (-0.5 to 0.5)” is about -0.054, and the highest 2% start at about 0.39. The list shows a part of the results.

molecular target: Ylr278c (UniProt Q05854); experiment: PBM E-score (8-mer binding enrichment) (E-score (-0.5 to 0.5)); higher = stronger / more preferred TF binding; most listed sequences are background and not binding sites; conditions: protein concentration: 200 nM; construct: GST-DNA-binding domain
Procedure, shortened: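 Yeast transcription factors carrying a GST tag, as full-length proteins or DNA-binding domains, were produced by PURExpress in vitro transcription/translation. About 100-200 nM protein was applied to universal all-10-mer Agilent arrays, double-stranded by primer extension on fresh or once-stripped slides. Bound protein was detected with fluorescent anti-GST, and scans were normalised with masliner. The Universal PBM Analysis Suite gave each ungapped eight-base word, pooled with its reverse complement, an E-score, a modified Wilcoxon-Mann-Whitney statistic.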

Sequence | PBM E-score
GGCGTGAC | 0.00725
GCTGGAGA | -0.271
AACATCCT | -0.13
AGACGGCT | 0.106
GCCGGGTA | 0.178
ACACTTGC | -0.148
GTATAACA | -0.169
CGTCCGGC | 0.407
AAACCGGT | 0.204
CCGGTTCA | 0.245
GCGGTCCA | 0.0865
GAGGTCAA | -0.0898
GAAGAGGC | -0.0592
ATCCAACC | -0.142
AGCGTAGG | -0.118
GACTGAGC | -0.207
CATCATAC | -0.0582
ATTATCGA | -0.173
GGGGTCGA | 0.121
ATATCGAG | -0.0239
ACGAAGCA | -0.185
AATGCTCT | -0.0976
CCCTCCTA | -0.107
GCAAATAC | -0.122
GATGGAAC | -0.122

Sequence | PBM E-score
GCCTAGTA | -0.0282
AGAGTTAC | -0.362
CATTATAA | 0.0314
AATGTTTG | -0.00463
AAGCATAG | -0.21
ACAGTTGG | -0.18
CAATATTG | -0.249
AGATTCAA | 0.0154
AATTGTCA | -0.248
CGGGGCCC | 0.283
TAGACAGA | -0.152
ACCGATTG | 0.0828
AACATGCT | -0.0663
GTAACGAA | -0.139
CCCATACG | -0.0748
CGTATGCA | -0.00834
CAGCCAGA | -0.0878
GAAAGCTC | -0.214
AAAAGAGT | -0.172
AGAGAGGC | -0.233
GAGGGTCA | -0.0944
GTACATGA | -0.183
CTGGCATA | -0.0157
TCTAGTCA | -0.147
CACCACGC | -0.189

Sequence | PBM E-score
CAACGAGG | -0.126
CATAAGCC | 0.0205
CCGCGGTA | 0.355
CAACGAGA | 0.0284
GCTCTTAC | 0.0329
TGCTCAAA | -0.118
AAGCGTGG | -0.103
AGAACGCT | -0.0442
GACACGGA | 0.341
CCAATACG | -0.0635
AAGAAATT | 0.0981
GACCTACA | -0.0188
TTCCAGAA | -0.145
CTTACCCA | -0.181
CTGCAATA | -0.0169
GAGATACA | 0.118
AGGATCAG | -0.23
ACTTCAGC | -0.181
GGATTACC | 0.292
TGTGACAA | -0.209
GATAGGAA | -0.0409
ACAGCAAC | 0.0377
GTTTCCTA | -0.161
ATCCTAAG | -0.147
AAAACGGA | 0.211

Sequence | PBM E-score
CGTATCAC | -0.112
CATTGTAC | -0.109
GATACAAA | 0.076
AAAGACGT | 0.00612
CATGGTAG | -0.215
CAGCGGGG | 0.204
CTTGCAAG | -0.0323
ATAGCGTA | -0.0599
ATATGTTA | -0.146
TACCCTGA | -0.243
CTGACGAC | -0.228
ACAGCATC | -0.123
AATGAGGA | -0.182
ATTAATTG | 0.0195
ACGTTCCC | -0.125
CCAATAGC | -0.0656
CTGGACAG | -0.149
CACACCTC | 0.0903
ATGGGAAG | -0.216
AACTTGTG | 0.0109
AGAATCTA | -0.14
CGTCCAAA | 0.14
AAACGATA | -0.158
ATTTTAGG | -0.0416
CGGAGGAC | 0.423

Sequence | PBM E-score
AACGGGTA | -0.0232
AAAAGTAG | -0.211
CACCGACA | 0.248
AGAGTGAG | -0.117
ACTTGTCA | 0.00844
AGCAAGAC | -0.0712
ACACGCCG | 0.305
GTGCCCGA | 0.0619
AAGTACTG | -0.235
AAACACAA | -0.164
AGACGCGA | -0.0461
CTTGCGTA | -0.183
ACATCCCG | 0.315
CAGGTGAC | -0.184
CGGTCCTC | 0.0743
CGAAACTA | 0.0933
GGTCATGA | -0.108
AGTGCAAT | -0.142
CCTCGCGC | -0.082
ATACCTGA | -0.132
CTCATAAA | -0.144
CCTAGACA | -0.107
CGATTTGC | 0.165
ATCTAGAG | -0.214
ATCTATGA | -0.234

Sequence | PBM E-score
AGGCCCCG | 0.133
AGAGCTCA | -0.177
ACCTCATA | -0.101
ATGTGTAG | 0.0145
CTCGTGTA | -0.0712
GCGATCGC | 0.223
GGAGGTAA | 0.145
GGCTTGAC | -0.0657
ACAATGAA | -0.165
CGCTGTGA | -0.181
AGCCGGTA | 0.352
CCCCCCAG | -0.315
GGGACAGA | -0.0933
GATTACAA | 0.145
ATTGGTCG | 0.0468
CGCGACGC | 0.102
TCAAGCGA | -0.0408
CCGGCGCA | 0.365
CAAGACAC | -0.00738
CGTACTCA | -0.0734
CAAAATTA | 0.0959
CCCCAAGG | -0.161
CTGCTTCA | -0.303
CCAACTGA | -0.328
AAACATGT | 0.0236

Sequence | PBM E-score
CGTCATAA | -0.0307
AAATCCAC | -0.124
GTTGCACA | -0.263
ATTCACAG | -0.265
ATGAGAGG | -0.0723
AGCCCGTA | -0.0821
ACGAAGAA | 0.0444
AGAGCTTG | -0.259
GTACGATA | -0.34
AACGTTTA | -0.141
GCCACTCC | 0.216
ACGGAATA | 0.357
ACGCCGGA | 0.432
CCCGTCGC | 0.162
AAACACCC | 0.0627
AGACTTTG | -0.283
AGGGGGGG | -0.452
ACTGCTAG | -0.314
AATTTTGA | 0.0064
GATCAGTA | -0.00685
CCAAGGAA | -0.0674
CCCGTCGA | 0.0362
